# Laboratory results from PubChem BioAssay AID720709 (National Center for Advancing Translational Sciences (NCATS), 2013).
# The whole screen tested about 360,000 compounds, of which about 520 (0.14%) were called active. This list was built around the results that the source calls inconclusive (neither active nor inactive); the mix of calls is not that of the screen. Calls follow the shape of the dose curve; as a rule, active = well fitted inhibition curve with a large enough effect; inconclusive = small, poorly fitted or top-dose-only effect; inactive = no such curve, though single readings can be large or run the other way. No potency is given beside an inconclusive call; the fits are too rough.
# Biological target: Rap guanine nucleotide exchange factor 3 (Homo sapiens) (UniProt O95398)
# Chain of UniProt O95398 (O95398 whole entry, looked up): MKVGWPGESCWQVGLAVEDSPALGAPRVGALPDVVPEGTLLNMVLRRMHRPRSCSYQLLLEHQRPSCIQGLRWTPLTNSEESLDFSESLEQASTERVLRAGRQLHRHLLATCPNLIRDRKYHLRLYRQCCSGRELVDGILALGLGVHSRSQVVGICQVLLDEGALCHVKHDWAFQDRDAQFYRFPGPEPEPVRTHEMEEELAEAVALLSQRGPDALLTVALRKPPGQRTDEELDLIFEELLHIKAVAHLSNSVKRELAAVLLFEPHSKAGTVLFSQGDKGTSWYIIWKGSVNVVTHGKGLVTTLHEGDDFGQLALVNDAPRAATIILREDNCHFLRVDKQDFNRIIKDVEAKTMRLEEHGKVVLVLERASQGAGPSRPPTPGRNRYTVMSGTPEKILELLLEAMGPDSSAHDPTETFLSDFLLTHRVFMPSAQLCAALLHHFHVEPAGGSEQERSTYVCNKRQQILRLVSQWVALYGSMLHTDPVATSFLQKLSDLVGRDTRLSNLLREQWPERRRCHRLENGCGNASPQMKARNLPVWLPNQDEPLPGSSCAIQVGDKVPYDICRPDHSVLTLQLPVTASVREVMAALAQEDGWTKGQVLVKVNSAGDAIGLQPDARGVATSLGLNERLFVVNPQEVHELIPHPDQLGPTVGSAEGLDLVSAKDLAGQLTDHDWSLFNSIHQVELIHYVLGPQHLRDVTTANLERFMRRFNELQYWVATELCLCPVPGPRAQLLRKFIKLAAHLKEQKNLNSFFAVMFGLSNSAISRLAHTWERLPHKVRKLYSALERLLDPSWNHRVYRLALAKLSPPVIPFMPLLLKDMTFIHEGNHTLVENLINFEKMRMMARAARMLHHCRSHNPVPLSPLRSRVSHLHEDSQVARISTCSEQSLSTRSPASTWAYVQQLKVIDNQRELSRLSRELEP
# Experiment: qHTS for Antagonist of cAMP-regulated guanine nucleotide exchange factor 3 (EPAC1): primary screen; also: nearly all actives have a fitted effect of over 50% in size
# Settings: EPAC1 GEF assay, Rap1b-BODIPY-GDP exchange fluorescence; series mostly up to 115 µM
# Potency is read from the fitted curve at half-maximal effect; tags tell the direction and shape of the fitted curve.
row,SMILES,Potency
1,CCC(CC)NC(=O)CON=C1c2ccccc2-c2ccccc21,"inconclusive [inhibitor, full curve, poor fit]"
2,Nc1c2c(nc3sc4c(c13)CCCC4)-c1ccccc1CC2,"inconclusive [inhibitor, single point]"
3,O=C(c1ccc(F)cc1)N1CCC(C(=O)N2CCN(S(=O)(=O)c3cccc(Cl)c3)CC2)CC1,inactive
4,CCN1CCN(c2ccc(S(=O)(=O)N3CCCCC3)cc2NC(=O)c2cccc(OC(F)F)c2)CC1,inactive
5,CCOC(=O)/C(C#N)=C/c1ccc(OC(=O)c2ccco2)c(OCC)c1,"inconclusive [inhibitor, partial curve]"
6,CCOc1ccccc1C=C1SC(=S)NC1=O,"inconclusive [inhibitor, partial curve]"
7,OCCOCCNc1ncnc2nc[nH]c12,inactive
8,Cc1ccc(NC(=S)NC(=O)c2cccs2)cc1F,inactive
9,CN(C)S(=O)(=O)c1cccc(NC(=O)c2cccc(NS(=O)(=O)c3ccccc3)c2)c1,"inconclusive [inhibitor, partial curve]"
10,COc1ccc(CNC(=O)c2cn(Cc3ccc(S(=O)(=O)N(C)C)cc3)c(=O)s2)cc1,"inconclusive [inhibitor, single point]"
11,N#Cc1ccccc1CN1C(=O)S/C(=C/c2cccn2-c2cccc(C(=O)O)c2)C1=O,"inconclusive [inhibitor, single point]"
12,N#Cc1ccccc1S(=O)(=O)N1CCN(C(=O)Cc2coc3cc(O)ccc23)CC1,"inconclusive [inhibitor, single point]"
13,COc1ccc(Cn2c(-c3ccc(C)cc3)nc3c(c(=O)c4ccccc4n3C)c2=O)cc1,"inconclusive [inhibitor, single point]"
14,CCc1noc(C)c1C(=O)NCCN1C(=O)S/C(=C\c2ccccc2F)C1=O,inactive
15,COCCNC(=O)[C@@H]1CCCN1C(=O)C1CCN(S(=O)(=O)c2ccc(C)cc2)CC1,"inconclusive [inhibitor, single point]"
16,O=C(N/N=C/c1cccnc1)c1cc(-c2ccccc2OCc2ccccc2)n[nH]1,active: 50.1 µM
17,O=C(NNC(=O)c1ccccc1Cl)c1ccncc1,inactive
18,Cn1c(CCN2CCCCC2)nc2cc(NS(=O)(=O)c3ccc(F)cc3)ccc21,inactive
19,COc1ccc(-c2nc(CS(=O)(=O)CC(=O)NC3CCCCCC3)c(C)o2)cc1,inactive
20,COc1cc(/C=C2\SC(=O)N(CC(=O)Nc3ccc(C)cc3)C2=O)cc(Cl)c1OCC(=O)O,"inconclusive [inhibitor, single point]"
21,O=C(OCc1c(-c2ccccc2)ncc2ccccc12)c1ccccc1C(F)(F)F,"inconclusive [inhibitor, full curve, poor fit]"
22,CCN(CC)C(=O)Oc1ccc2oc(=O)cc(-c3cc4cccc(OC)c4o3)c2c1,"inconclusive [inhibitor, full curve, poor fit]"

row,SMILES,Potency
1,CC(=O)Nc1cccc(OCC(=O)/C=C2\N(C)c3ccccc3C2(C)C)c1,"inconclusive [inhibitor, single point]"
2,N#C/C(=C/c1ccc(O)c(O)c1)C(=O)NCc1ccc(Cl)cc1,"inconclusive [inhibitor, full curve]"
3,CN(C)c1ccc(/C=C/C(=O)c2cccc(Br)c2)cc1,inactive
4,CN1CCCN(S(=O)(=O)c2ccccc2)c2nc3ccccc3nc21,"inconclusive [inhibitor, single point]"
5,COc1ccccc1/C=C/C(=O)NC(=S)NCC1CCCO1 (stereo not drawn),inactive
6,NS(=O)(=O)c1ccc(NC(=S)NC(=O)c2ccc(Br)o2)cc1,"inconclusive [inhibitor, single point]"
7,O=C1c2cc(O)c(O)cc2OC(c2ccc(O)c(O)c2)C1O (stereo not drawn),"inconclusive [inhibitor, partial curve]"
8,CC(C)c1ccccc1NC(=O)COC(=O)Cc1cccc(C(F)(F)F)c1,"inconclusive [inhibitor, full curve, poor fit]"
9,COc1ccc(S(=O)(=O)CC(=O)c2cc3cc(Br)ccc3oc2=O)cc1,"inconclusive [inhibitor, partial curve]"
10,COc1ccc(C(=O)CSc2nnn(-c3cccc(NC(C)=O)c3)n2)cc1,"inconclusive [inhibitor, full curve, poor fit]"
11,C[C@@H]1CN([C@H](C)CO)C(=O)CCCn2nncc2CO[C@H]1CN(C)S(=O)(=O)c1ccc(Oc2ccccc2)cc1,inactive
12,O=C(COc1ccccc1)Nn1c(-c2ccccc2)nc2ccccc2c1=O,"inconclusive [inhibitor, full curve, poor fit]"
13,Cc1oc2ccc(OCc3ccc(Cl)cc3)cc2c1C(=O)O,"inconclusive [inhibitor, partial curve]"
14,COc1ccc(C=NNc2ccc(S(=O)(=O)Nc3ccccc3C(=O)O)cc2[N+](=O)[O-])c(OC)c1,active: 50.1 µM
15,CN(C(=O)c1ccc2c(=O)n3c(nc2c1)CCCCC3)c1cccc(Cl)c1,"inconclusive [inhibitor, partial curve]"
16,O=C(O)CN1C(=O)/C(=C\c2ccccc2OCc2ccc(Cl)cc2)SC1=S,"inconclusive [inhibitor, full curve]"
17,O=C(CCl)Nc1c(C(=O)Nc2ccc3c(c2)OCCO3)oc2ccccc12,"inconclusive [inhibitor, partial curve]"
18,CC1CCN(S(=O)(=O)c2ccc3c(c2)N(CC(=O)NCCCN2CCCCC2C)C(=O)CS3)CC1 (stereo not drawn),inactive
19,Cc1ccc(S(=O)(=O)N2CCC(C(=O)C3C(=O)CC(C)(C)CC3=O)CC2)cc1,inactive
20,CN(C)S(=O)(=O)c1cc(NC(=O)COC(=O)CC2CC3CCC2C3)ccc1Cl (stereo not drawn),"inconclusive [inhibitor, partial curve]"
21,O=C(O)CCN(Cc1ccccc1)S(=O)(=O)c1ccc(Cl)cc1F,"inconclusive [inhibitor, partial curve]"
